Measured values reported in publication PMC8426278 (iScience, 2021).

T1: GST-G1NC_(short) (GST-fused truncated cytosolic domain of rat GIRK1, a.a. 41-63, 190-371) (rat, UniProt P63251)
T1 chain: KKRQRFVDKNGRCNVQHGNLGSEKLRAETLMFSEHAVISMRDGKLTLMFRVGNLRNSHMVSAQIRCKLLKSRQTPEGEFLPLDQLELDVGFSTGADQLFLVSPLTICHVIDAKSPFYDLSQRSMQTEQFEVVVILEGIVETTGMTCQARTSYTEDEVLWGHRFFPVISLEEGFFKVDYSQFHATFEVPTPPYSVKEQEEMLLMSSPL

B1: Gβ1(I80N)γ2 (bovine Gβ1 I80N co-translated with bovine Gγ2) (complex)
chain 1: not shown
chain 2: not shown
B2: Gβ1(I80T)γ2 (bovine Gβ1 I80T co-translated with bovine Gγ2) (complex)
chain 1: not shown
chain 2: not shown
B3: Gβ1(K78R)γ2 (bovine Gβ1 K78R co-translated with bovine Gγ2) (complex)
chain 1: not shown
chain 2: not shown

Target: T1, GST-G1NC_(short) (GST-fused truncated …)
Test: pull-down

| Binder | reduction of binding relative to wt Gβγ [%] |
| --- | --- |
| B1 | ~50 |
| B2 | ~50 |
| B3 | ~50 |
